result_ITMP data for 89 compounds are collected here from article PMC13083723 (Patterns, 2026).

Among all 5,400 compounds or so, about 190 (3.5%) showed an effect of 50% or more. Some of the results follow.

The test relates to Vero-E6. Nature of the test: primary screen, phospholipidosis by LipidTOX staining; higher = more effect of the substance. The following applies: 10 µM. The procedure, abridged: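 Single-concentration screen at 10 μM, with DMSO 0.1 v/v % and amiodarone 10 μM as controls. Read-out is LipidTOX Red phospholipid staining, which tolerates aldehyde fixation, in Vero-E6 cells.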
Consider `NC(=O)c1nc(Nc2ccccc2)sc1NC(=O)C1CCCCC1`, for which the result_ITMP is on record as -5.89%.

Turning to `C=CC(=O)Nc1cc(Nc2nccc(-c3c[nH]c4ccccc34)n2)c(OC)cc1N(C)CCN(C)C`, the result_ITMP turned out to be 40.6%. Consider `O=[N+]([O-])c1cncn1CCN1CCOCC1`, for which the result_ITMP was -2.15%. In the case of `C=CC(=O)Nc1cc(Nc2nccc(-c3cn(C)c4ccccc34)n2)c(OC)cc1N(C)CCN(C)C`, the result_ITMP is listed as 38.1%. In the case of `C#Cc1cccc(Nc2ncnc3cc4c(cc23)OCCOCCOCCO4)c1`, the result_ITMP is 12.6%. For `Cc1ccc(NCCCc2ccccc2)c(N)c1`, the result_ITMP is -2.41%. The value for `CCc1c(C)[nH]c2c1C(=O)C(CN1CCOCC1)CC2` (centres unmarked) was 3.76%; that for `COc1cc(NC(=O)c2cccc(-n3cc(NC(=O)Nc4cccc(C)c4)cn3)c2)cc(OC)c1OC` was -5.83%. The figure for `NC(=O)CNCCC(c1ccccc1)c1ccccc1` is -0.08%. For the compound `COc1cc(C(=O)NCCCCCC(=O)O)cc(OC)c1OC`, the result_ITMP was -0.54%.

As to `CC1=C(C(=O)O)N2C(=O)[C@@H](NC(=O)[C@H](N)C3=CCC=CC3)[C@H]2SC1`, the result_ITMP was -1.83%. As to `N[C@@H](CCC(=O)N[C@@H](CS)C(=O)NCC(=O)O)C(=O)O`, the result_ITMP is -0.05%. In the case of `CCCN(C/C=C/I)C1CCc2ccc(O)cc2C1` (centres unmarked), the result_ITMP worked out at 2.45%. Turning to `N#CC(c1ccccc1)(c1ccccc1)c1ccccc1Cl`, the result_ITMP is given as -3.02%. On to `Cc1ncc(CO)c(/C=N/NC(=O)c2ccncc2)c1O`, for which the result_ITMP is -0.03%.

With `NC(=O)CN1C[C@H](O)CC1=O`, the result_ITMP is -0.97%. The value for `Nc1nc(NC2CC2)cc(-c2cccc(Cl)c2Cl)n1` was -0.91%.

With `CC1Sc2c(C(=O)O)c(=O)c3cc(F)c(N4CCNCC4)cc3n21` (centres unmarked), the result_ITMP is recorded as -2%. The value for `CC(=O)Oc1ccccc1C(=O)O` was -1.07%; that for `CC(Oc1ccc(Cl)cc1)c1ccnc2ncnn12` (centres unmarked) was -0.09%. For `CC1=C(/C=C/C(C)=C/C=C/C(C)=C/C=C/C=C(C)/C=C/C=C(C)/C=C/C2=C(C)C(=O)[C@@H](O)CC2(C)C)C(C)(C)C[C@H](O)C1=O`, the result_ITMP is on record as -6.09%. In the case of `O=C(O)CNC(=O)c1c(O)c2ccccc2n(Cc2ccccc2)c1=O`, the result_ITMP worked out at 3.5%. For `CNS(=O)(=O)CCc1ccc2[nH]cc(C3CCN(C)CC3)c2c1`, the result_ITMP is reported as -5.61%. The value for `CCCCNC(=O)[C@@H]1Cc2ccccc2N1C(=O)[C@@H](N)CC` was -1.01%.

On to `O=C(Nc1nc2cccc(-c3ccc(CN4CCS(=O)(=O)CC4)cc3)n2n1)C1CC1`, for which the result_ITMP worked out at 0.26%. For the compound `COc1ccc2ccc(=O)oc2c1CC=C(C)C`, the result_ITMP is -1.25%.

As to `N=C(N)NS(=O)(=O)c1ccc(N)cc1`, the result_ITMP is on record as -0.19%. For `Cc1cc(CN2CCN(c3c(Br)cnc4[nH]c(-c5ccc(N6CCN(C)CC6)cc5)nc34)CC2)no1`, the result_ITMP is reported as -0.42%. For `CSCC1CN(/N=C/c2ccc([N+](=O)[O-])o2)C(=O)O1` (centres unmarked), the result_ITMP turned out to be 0.39%.

With `COc1cc2nc(N(C)CCCNC(=O)C3CCCO3)nc(N)c2cc1OC` (centres unmarked), the result_ITMP came to 1.62%.

On to `O=C(Nc1cc(C(F)(F)F)cc(C(F)(F)F)c1)c1cnc(Cl)nc1C(F)(F)F`, for which the result_ITMP is recorded as -2.22%.

On to `CCN(CC)c1ccc(C(=C2C=CC(=[N+](CC)CC)C=C2)c2ccccc2)cc1`, for which the result_ITMP is listed as -12.8%. The value for `CNCCn1c(=O)c2cc(OC)c(OC)cc2c2cnc3cc4c(cc3c21)OCO4` was 0.03%; that for `Oc1ccc2ccccc2c1SSc1c(O)ccc2ccccc12` was 9.07%. The figure for `Clc1ccc(Cn2c(CN3CCCC3)nc3ccccc32)cc1` is 8.68%; for `CCCCc1nc2cc(/C=C/C(=O)NO)ccc2n1CCN(CC)CC` it is -5%; for `CC(C)OC(=O)Nc1cccc(Cl)c1` it is -2.26%.

`O=C(O)/C=C/c1ccc(O)c(O)c1`: the result_ITMP is listed as 1.17%. In the case of `CC1(C)CC(=O)c2c(C(F)(F)F)nn(-c3ccc(C(N)=O)c(N[C@H]4CC[C@H](O)CC4)c3)c2C1`, the result_ITMP is listed as -1.47%. For `CC(C)c1ccc2c(c1)CC[C@H]1[C@](C)(CN)CCC[C@]21C`, the result_ITMP is recorded as 80.5%. For `C[N+](C)(C)CCCCCCCCCC[N+](C)(C)C`, the result_ITMP was 2.31%. `c1ccc2nc(N3CCNCC3)ccc2c1`: the result_ITMP is reported as 9.23%.

As for `CC(=O)O[C@]1(C(C)=O)CC[C@H]2[C@@H]3CCC4=CC(=O)CCC4=C3[C@@H](c3ccc(N(C)C)cc3)C[C@@]21C`, the result_ITMP is -0.56%. Turning to `COc1cc(C(=O)N(CCC2CCCN2C)C/C(C)=C/c2ccccc2F)cc(OC)c1OC` (centres unmarked), the result_ITMP worked out at 37.9%. The figure for `CS(=O)(=O)c1ccc([C@@H](CC2CCCC2)C(=O)Nc2nccs2)cc1` is -2.12%; for `N#CSc1cc(SC#N)c(N)nc1N` it is -0.78%; for `CCc1cc(C(C)=O)c(O)cc1OCCCCCC(C)(C)c1nnn[nH]1` it is -0.08%. `Cc1cc(O)c(C(=O)N[C@@H](C(=O)N[C@@H]2C(=O)N3C(C(=O)[O-])=C(CSc4nnnn4C)CS[C@H]23)c2ccc(O)cc2)cn1`: the result_ITMP is recorded as -6.76%. The figure for `CN1C[C@@H]2C[C@H]1CN2c1cc2c(cc1F)c(=O)c(C(=O)O)cn2C1CC1` is -0.66%; for `CC#CC(=O)N1CCC[C@H]1c1nc(-c2ccc(C(=O)Nc3ccccn3)cc2)c2c(N)nccn12` it is -1.7%. Turning to `CC(=O)Nc1nc2c(Oc3cc(-c4ccc(C(F)(F)F)cc4)ncn3)cccc2s1`, the result_ITMP is -4.53%. Consider `CC(C)c1ccc(-c2cc(=O)c3ccccc3o2)cc1`, for which the result_ITMP is recorded as -1.84%. Regarding `CC(C)n1nc(-c2ccc3oc(N)nc3c2)c2c(N)ncnc21`, the result_ITMP was found to be 1.87%.

With `CCCCCCCCCCCCCCCC(=O)OC[C@@H](NC(=O)C(Cl)Cl)[C@H](O)c1ccc([N+](=O)[O-])cc1`, the result_ITMP is recorded as -1.35%.

Take `N=C(N)Nc1ccc(C(=O)Oc2ccc3cc(C(=N)N)ccc3c2)cc1`: the result_ITMP was found to be 2.02%. Take `NC(=O)c1nc(F)cnc1O`: the result_ITMP is -3.41%.

In the case of `Nc1ncnc2c1ncn2C1O[C@H](COP(=O)(O)OP(=O)([O-])OP(=O)([O-])O)[C@@H](O)[C@H]1O` (some centres unmarked), the result_ITMP is 6.44%. Regarding `COc1cc(C[C@@H](CO[C@@H]2O[C@H](CO)[C@@H](O)[C@H](O)[C@H]2O)[C@H](CO[C@@H]2O[C@H](CO)[C@@H](O)[C@H](O)[C@H]2O)Cc2ccc(O)c(OC)c2)ccc1O`, the result_ITMP is recorded as 4.43%. Take `C[C@H](NC(=O)CCc1nc2ccccc2c(=O)[nH]1)c1ccccc1` [R4A_0003503_001 / SPE_A63444178]: the result_ITMP amounted to 0.66%. Turning to `Cc1nnsc1C(=O)Nc1ccc(-n2nc(C(F)(F)F)cc2C(F)(F)F)cc1`, the result_ITMP is recorded as -7.75%. The figure for `Oc1c(I)cc(I)cc1I` is -4.04%. With `CCCCCCCCCCCCCCCC[n+]1ccn(Cc2ccccc2)c1C`, the result_ITMP is listed as -1.61%. Consider `C=CC(=O)Nc1cccc(Nc2nc(Nc3ccc(Oc4ccnc(C(=O)NC)c4)cc3)ncc2F)c1`, for which the result_ITMP was 0.98%. Turning to `CCCSc1nc(N[C@@H]2C[C@H]2c2ccc(F)c(F)c2)c2nnn([C@@H]3C[C@H](OCCO)[C@@H](O)[C@H]3O)c2n1`, the result_ITMP was -1.6%. `OC[C@H]1O[C@H](O[C@H]2[C@H](O)[C@@H](O)[C@H](O)O[C@@H]2CO)[C@H](O)[C@@H](O)[C@@H]1O`: the result_ITMP is -0.88%. The figure for `CN1C[C@H](C(=O)N[C@]2(C)O[C@@]3(O)[C@@H]4CCCN4C(=O)[C@H](Cc4ccccc4)N3C2=O)C[C@@H]2c3cccc4[nH]cc(c34)C[C@H]21` is -1.82%; for `C=C1C[C@@]2(O)O[C@@]3(C[C@H]2C(C)C)[C@@H](C)CC[C@@H]13` it is -4.82%.

As for `O=C(O)COCCN1CCN(C(c2ccccc2)c2ccc(Cl)cc2)CC1` (centres unmarked), the result_ITMP is recorded as -4.08%. Take `N[C@@H]1CONC1=O`: the result_ITMP is -0.5%. Turning to `O=C1NCN(c2ccccc2)C12CCN(CC1COc3ccccc3O1)CC2` (centres unmarked), the result_ITMP is recorded as -0.96%. `N[C@H]1C[C@@H]1c1ccc(-c2cccc(O)c2)cc1`: the result_ITMP amounted to 37.1%. With `CCCc1c2oc(C(=O)O)cc(=O)c2cc2c(=O)cc(C(=O)O)n(CC)c12`, the result_ITMP is -1.04%. Regarding `COc1cc2c(cc1OC)[C@@H](Cc1cc(OC)c(OC)c(OC)c1)[N+](C)(CCCOC(=O)CC/C=C/CCC(=O)OCCC[N+]1(C)CCc3cc(OC)c(OC)cc3[C@H]1Cc1cc(OC)c(OC)c(OC)c1)CC2` (some centres unmarked), the result_ITMP is reported as -2.07%.

Consider `O=C1c2ccccc2C(=O)C1c1ccc(Cl)cc1`, for which the result_ITMP was 1.02%. As for `CN(C)CC(O)Cn1c2ccc(Br)cc2c2cc(Br)ccc21` (centres unmarked), the result_ITMP turned out to be 28.6%.

For the compound `O=C(O)c1ccccn1`, the result_ITMP was -2.21%. As to `CC(=O)O[C@]1(C(C)=O)CC[C@H]2[C@@H]3C=C(Cl)C4=CC(=O)[C@@H]5C[C@@H]5[C@]4(C)[C@H]3CC[C@@]21C`, the result_ITMP came to 3.68%. In the case of `O=C(O)C1CCCN(CCC=C(c2ccccc2)c2ccccc2)C1` (centres unmarked), the result_ITMP is given as -1.78%. Take `CC(C)c1cc(-c2n[nH]c(=O)n2-c2ccc3c(ccn3C)c2)c(O)cc1O`: the result_ITMP was -7.81%.

Consider `N=C(N)c1ccc(/C=C/c2ccc(C(=N)N)cc2O)cc1`, for which the result_ITMP is -2.09%. Turning to `COc1ccc(-c2ccc3ncc4c(c3c2)n(-c2ccc(N3CCNCC3)c(C(F)(F)F)c2)c(=O)n4C)cn1`, the result_ITMP is listed as 5.95%.

For the compound `Clc1ccc(CO/N=C(\Cn2ccnc2)c2ccc(Cl)cc2Cl)c(Cl)c1`, the result_ITMP came to 0.41%. With `Cc1ncc(C)n2nc([C@@H]3C[C@H]3c3nc4c5cccnc5ccn4c3C)nc12`, the result_ITMP was -2.79%. Regarding `COc1cccc(CCc2ccccc2OCC[C@@H]2C[C@@H](O)CN2C)c1`, the result_ITMP was found to be 90.4%.

As to `O=C(Nc1ccc(C(O)(C(F)(F)F)C(F)(F)F)cc1)c1ccc(C(F)(F)F)cc1`, the result_ITMP is reported as -1.38%. In the case of `CC1CC(OC(=O)C(O)c2ccccc2)CC(C)(C)C1` (centres unmarked), the result_ITMP came to 2.57%. Take `O=C(N/N=C/c1ccccc1O)c1ccccc1O`: the result_ITMP is -3.15%. As to `COc1ccc(C(Cl)=C(c2ccc(OC)cc2)c2ccc(OC)cc2)cc1`, the result_ITMP is on record as -10%. Regarding `O=c1[nH]c2cc(C(F)(F)F)c(N3CCOCC3)cc2n(CP(=O)(O)O)c1=O`, the result_ITMP was -7.52%.
